# Assay results from PMC4336329 (PLoS ONE, 2015).
# Among all 310,000 compounds or so, about 2,200 (0.71%) showed an effect of 50% or more. Effects have a minus sign here. Some of the results follow.
# Biological target: human ether-à-go-go-related gene (hERG) potassium channel (human, UniProt Q12809)
# Assay: primary screen, population patch clamp on CHO cells stably expressing hERG
# Sequence of human ether-à-go-go-related gene (hERG) potassium channel (Q12809 whole entry, looked up): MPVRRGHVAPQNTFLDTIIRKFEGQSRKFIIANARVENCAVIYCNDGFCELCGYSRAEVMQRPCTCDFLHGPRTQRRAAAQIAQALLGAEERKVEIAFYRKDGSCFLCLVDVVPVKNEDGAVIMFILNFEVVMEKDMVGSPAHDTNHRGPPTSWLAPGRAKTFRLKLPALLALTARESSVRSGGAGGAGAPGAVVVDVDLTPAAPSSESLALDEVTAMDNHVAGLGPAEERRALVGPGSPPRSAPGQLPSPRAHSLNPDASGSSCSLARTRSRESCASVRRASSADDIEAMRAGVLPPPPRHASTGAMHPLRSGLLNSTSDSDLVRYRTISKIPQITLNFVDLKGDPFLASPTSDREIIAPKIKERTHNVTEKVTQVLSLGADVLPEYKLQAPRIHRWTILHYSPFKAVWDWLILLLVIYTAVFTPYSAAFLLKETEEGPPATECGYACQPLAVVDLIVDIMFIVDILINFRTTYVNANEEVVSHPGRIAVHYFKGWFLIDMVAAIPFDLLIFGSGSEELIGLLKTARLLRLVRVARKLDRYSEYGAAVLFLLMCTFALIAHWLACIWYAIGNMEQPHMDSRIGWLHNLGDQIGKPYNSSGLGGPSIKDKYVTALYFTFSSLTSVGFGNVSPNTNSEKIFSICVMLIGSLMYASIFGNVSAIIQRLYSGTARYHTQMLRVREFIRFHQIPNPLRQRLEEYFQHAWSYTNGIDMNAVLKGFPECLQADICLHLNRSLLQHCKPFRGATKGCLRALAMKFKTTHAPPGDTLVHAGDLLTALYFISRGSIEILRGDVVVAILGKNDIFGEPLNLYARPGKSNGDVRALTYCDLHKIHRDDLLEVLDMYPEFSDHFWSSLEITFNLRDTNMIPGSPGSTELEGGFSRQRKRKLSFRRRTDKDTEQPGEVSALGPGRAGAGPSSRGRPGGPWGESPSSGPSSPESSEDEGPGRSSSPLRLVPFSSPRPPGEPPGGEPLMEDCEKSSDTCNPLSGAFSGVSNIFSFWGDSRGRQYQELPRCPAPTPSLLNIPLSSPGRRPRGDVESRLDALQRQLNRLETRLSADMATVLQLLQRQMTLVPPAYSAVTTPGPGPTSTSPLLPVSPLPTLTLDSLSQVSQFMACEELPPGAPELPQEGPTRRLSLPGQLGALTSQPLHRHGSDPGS
row,SMILES,"hERG current change (%, negative = inhibition) at 1uM"
1,CCOC(=O)C1CCN(S(=O)(=O)Cc2ccc(Cl)cc2)CC1,17.4%
2,CN(CC(=O)Nc1ccc(F)cc1)CC(=O)N(C)C1(C#N)CCCCC1,0.449%
3,O=C(Cn1cncn1)c1ccccc1,4.12%
4,NC(C(=O)O)c1cc(=O)[nH]o1 (centres unmarked),9.36%
5,CC(C)CCNCC(O)CON=C1c2ccccc2-c2ccccc21 (centres unmarked),2%
6,CCOc1ccc(/C=C2/C(=O)N(c3ccc(OC)cc3)C(=S)N2CC(=O)OC)cc1OCC,4.96%
7,COc1ccc(-c2csc(NC(=O)C3CC(=O)N(Cc4ccccc4)C3)n2)cc1OC (centres unmarked),7.61%
8,CCOc1ccc(N(CC(=O)NN=C2CCN(C)CC2)S(=O)(=O)c2ccc(Br)cc2)cc1,-11.3%
9,CC(C)CCN1CCN(Cc2ccc3nsnc3c2)CC1CCO (centres unmarked),-21.3%
10,CC(C)(Cc1ccc(O)cc1)NC(=O)CC(=O)N=Nc1c(O)[nH]c2ccc(Br)cc12,21.3%
11,O=C(CSc1nccn(-c2cccc(F)c2)c1=O)Nc1ccc(Cl)cc1F,15%
12,CCOC(=O)c1sc(NC(=O)Nc2cccc(Cl)c2)cc1C,10.7%
13,Cc1ccc2c(c1)NC(=O)C(CC(=O)NC1CCCCC1C)O2 (centres unmarked),2.12%
14,O=C(/C=C/c1cc([N+](=O)[O-])ccc1OC(F)F)Nc1ccc(OC(F)F)cc1,13.3%
15,CCN(CC)CCC(=O)NN,6.1%
16,O=C1Nc2ccc([N+](=O)[O-])cc2C1(O)N1CCCCCC1 (centres unmarked),0.0481%
17,O=C1c2ccccc2S(=O)(=O)c2cc(N3CCOCC3)ccc21.O=C1c2ccccc2S(=O)(=O)c2cc(N3CCOCC3)ccc21,8.78%
18,O=C(CCC(=O)Nc1ccc(Cl)cc1)N/N=C/c1ccc2c(c1)OCO2,15.8%
19,O=C(O)c1ccc(NC(=O)C2(c3ccccc3)CCOCC2)cc1,13.8%
20,O=C(O)/C(=C\c1ccc(Br)cc1)NC(=O)c1cccs1,11.4%
21,COC(=O)c1cc(C(=O)NCCN2C(=O)S/C(=C\c3cccs3)C2=O)cc([N+](=O)[O-])c1,1.6%
22,CCCCN(C(=O)NC(=O)Nc1ccccc1OCC)S(C)(=O)=O,10.9%

row,SMILES,"hERG current change (%, negative = inhibition) at 1uM"
1,CCN1CCN(CCCOc2ccc(-c3ccccc3)cc2)CC1,-39.8%
2,COc1ccc2c3c1OC1CC(O)C=CC31CCN(C)C2.I (centres unmarked),19.1%
3,O=NN1CCN(c2ccncc2S(=O)(=O)N2CCCCC2)CC1,14.3%
4,C=CCn1c(COc2cccc3ccc(C)nc23)nnc1SCC(=O)OC,1.8%
5,CC12CCC(C(=O)N(Cc3ccccc3)Cc3ccccc3)(OC1=O)C2(C)C (centres unmarked),8.51%
6,COc1ccccc1CN1CCN(Cc2cc(OC)c(OC)cc2OC)CC1.O=C(O)C(=O)O,2.86%
7,CC(=O)C(N=Nc1ccccc1)(Sc1nnc(-c2ccccc2)n1-c1ccccc1)C(C)=O,11.6%
8,COc1cc(OC)cc(C(=O)NCCSc2c[nH]c3ccccc23)c1,2.36%
9,Cc1cc(-c2csc(NC(=O)c3ccc(C#N)cc3)n2)c(C)n1Cc1ccco1,17.6%
10,COc1ccccc1S(=O)(=O)Cc1ccc(C(=O)N2CCN(c3ccccn3)CC2)o1,-1.31%
11,CCCC(C)C(=O)Nc1ccc(Cl)cn1 (centres unmarked),13.1%
12,CC(C)(C)NC(=O)C(c1ccc(O)cc1)N(Cc1ccco1)C(=O)CCC(=O)Nc1ccccn1 (centres unmarked),7.67%
13,CCC(=O)Nc1nnc(S(=O)(=O)N2CCCC2)s1,12.2%
14,O=C(Nc1ncn[nH]1)c1cccc(S(=O)(=O)N2CCOCC2)c1,10.5%
15,CCn1cc(CNC(=O)c2ccc(OC3CCN(Cc4ccccn4)CC3)cc2)cn1,9.41%
16,C=CCNC(=O)N[C@@H](Cc1ccccc1)C(=O)OC,15.1%
17,O=C(C[n+]1cc(-c2ccccc2)n2c1CCC2)N1c2ccccc2Sc2ccccc21.[Cl-],6.31%
18,NS(=O)(=O)c1ccc(CNC(=O)c2ccc(NS(=O)(=O)c3ccc4[nH]c(=O)[nH]c4c3)cc2)cc1,-9.86%
19,CCN(CC)C(=O)c1cccc(NC(=O)c2ccccc2OCc2c(C)noc2C)c1,-0.828%
20,COc1ccc(NS(=O)(=O)c2cccc(C(=O)NNC(=O)c3ccc(Br)o3)c2)cc1,6.63%
21,N#CCCN(C(=O)COC(=O)CCc1ccccc1)c1ccccc1,6.66%
22,Cc1ccc(NC(=O)CN2C(=O)CC(C)S(=O)(=O)c3ccccc32)cc1 (centres unmarked),10.1%

row,SMILES,"hERG current change (%, negative = inhibition) at 1uM"
1,CCOC(=O)c1c(C)nc2c(c1-c1ccc(Cl)cc1)C(=O)CC(C)(C)C2,12.8%
2,CN(C)c1ccc(NC(=O)C2CCCN(S(=O)(=O)c3ccccc3)C2)cc1 (centres unmarked),9.75%
3,CC1CN=C(Nc2ccc(N(C)C)cc2)S1 (centres unmarked),10.3%
4,O=C(OCCN1CCN(C2=NS(=O)(=O)c3ccccc32)CC1)c1cccc(Br)c1,-26.1%
5,O=C(CSc1nnc(NC(=O)Cc2ccc(F)cc2)s1)NCc1ccco1,3.46%
6,CN(C)S(=O)(=O)c1ccc(C(=O)N2CC(=O)Nc3ccc(F)cc3C2c2ccc(F)cc2)cc1 (centres unmarked),6.56%
7,CCOC(=O)c1sc(=S)n(-c2ccccc2OC)c1N,8.38%
8,Br.CCCCn1c(=N)n(CC(=O)C(C)(C)C)c2ccccc21,-28.2%
9,O=c1nc(N2CCCCCC2)nc(N2CCCCCC2)[nH]1,1.56%
10,CCN(C(=O)c1cccc(Br)c1)C1CCS(=O)(=O)C1 (centres unmarked),8.5%
11,COc1cc(/C=N/N=C2/NC(=O)C(Cc3ccccc3)S2)ccc1O (centres unmarked),3.18%
12,O=C(CSC1=N/C(=C/c2ccc(Cl)c(Cl)c2)C(=O)N1c1ccccc1F)NC1CC1,7%
13,COc1ccccc1/C=N/NC(=O)CC(=O)NCCc1ccccc1,11.2%
14,COc1ccccc1-n1c(=O)[nH]c2c(C(N)=O)nc(C3CCCCC3)nc21,8.91%
15,CC(Oc1ccc(Br)cc1)C(=O)NCC1(N2CCCCC2)CCCCC1 (centres unmarked),-2.47%
16,O=C(Nc1cc(Cl)ccn1)C1(c2ccccc2)CC1(Cl)Cl (centres unmarked),15.2%
17,CC(C)(C)c1cc(C(=O)NCC(=O)OCC(=O)c2cccc([N+](=O)[O-])c2)cc(C(C)(C)C)c1,13.2%
18,CC1(C)CC(O)C(C(O)c2cccc([N+](=O)[O-])c2)C(C)(C)N1 (centres unmarked),22.9%
19,Cc1cccc(C(=O)OCC(=O)NCCCc2ccccc2)c1,12.6%
20,CCOC(=O)c1[nH]c2ccc(OC)cc2c1NC(=O)c1ccccc1C(=O)O,14%
21,COCC(=O)Nc1ccc2nc3n(c(=O)c2c1)CCCCC3,11.3%
22,Cc1nc(C(=O)N(C)C)nn1-c1cc(Cl)ccc1Cl,15.6%

row,SMILES,"hERG current change (%, negative = inhibition) at 1uM"
1,CCCCC(CCC(=O)O)(C(=O)OCC)c1csc(Nc2ccccc2)n1 (centres unmarked),11.3%
2,O=C(c1cccc(N2C(=O)C3C4C=CC(C4)C3C2=O)c1)N1CCN(c2ccccc2Cl)CC1 (centres unmarked),12.2%
3,CC1=C(C#N)CCC(=O)N1Cc1c(C)cc(C)cc1C,9.07%
4,Cc1ccc(C(C)n2cc(C(=O)NCc3cccnc3)nn2)cc1 (centres unmarked),3.85%
5,CC(C)n1c(/C=C/c2ccccc2)nc2ccccc21,2.24%
6,COc1ccc(NC(=O)c2nc[nH]c2C(=O)NCCCCCNC(=O)OC(C)(C)C)cc1,18.2%
7,O=C(COC(=O)C1CC1)Nc1ccc(Oc2ccccc2)cc1,8.39%
8,Clc1cccc(Cl)c1OCCCCN1CCCCC1.O=C(O)C(=O)O,0.923%
9,CNC(=O)c1cccc2cccc(Sc3ccccc3C(=O)O)c12,2.7%
10,Cc1ccccc1NC(=O)C1C2C=CC(C3CC23)C1C(=O)O (centres unmarked),9.39%
11,COc1ccc(-c2c(-c3cc(OC)cc(OC)c3)n(C)c3ccc(-c4ccn[nH]4)cc23)cc1,6.44%
12,CCOC(=O)CCc1c(C)nc2cc(C3CCCN(C(=O)OC(C)(C)C)C3)[nH]n2c1=O (centres unmarked),15.4%
13,O=C(/C=C/c1ccco1)c1ccc(O)cc1,-3.25%
14,O=C(/C=C/c1ccc(F)cc1)Nc1cc(S(=O)(=O)N2CCOCC2)ccc1N1CCCC1,-60.3%
15,CC(=O)Oc1ccc(C(=O)OCC(=O)c2c(N)n(C)c(=O)n(C)c2=O)cc1OC(C)=O,9.99%
16,c1ccc(-c2ccc3c(c2)NC(C2Nc4cc(-c5ccccc5)ccc4O2)O3)cc1 (centres unmarked),10.8%
17,CC(=O)c1c(C)n(-c2ccccc2Br)c2ccc(O)cc12,13%
18,CN(C)/C=N/c1c(C#N)cnn1-c1ccccc1,11.3%
19,Cc1ccc(C(=O)/C=C\NCc2ccccc2)cc1,7.27%
20,C#CCOCCOCCOCCNc1nc(N2CCN(C(=O)[C@H](C)n3cc(CCC[NH+]=C(N)N)nn3)CC2)nc(N2CCN(C(=O)[C@H](Cc3ccc(O)cc3)n3cc(CCO)nn3)CC2)n1.[Cl-],15.2%
